Laboratory results taken from PubChem BioAssay (Tox21).
Values joined by “and” are separate entries in the source; they are usually repeats but may differ in a detail not shown here. Equal values may be shown once. This list was built around the results that the source calls inconclusive (neither active nor inactive); the mix of calls is not that of the screen. For some assays here: Where the call is inconclusive, the potency comes from a doubtful curve fit. Where a structure was tested more than once in an assay, its records may differ in their call. Active and inactive are the calls of the source. Unless noted, calls follow the shape of the dose curve; as a rule, active = well fitted curve in the direction sought with a large enough effect in the repeat runs; inconclusive = weak or mixed curves; inactive = no such curve, though single readings can be large; an effect the other way counts as inactive or inconclusive.

Assays:
[1] = biological target: Progesterone receptor (Homo sapiens) (UniProt P06401); test: qHTS assay to identify small molecule antagonists of the progesterone receptor (PR) signaling pathway (AID 1346795; active = well fitted inhibition curve with a large enough effect in the signal ratio in the repeat runs, not every such curve was filed as active; inconclusive = weak or mixed curves; the % refers to the signal ratio; also: potency is read from the fitted curve at half-maximal effect; as to activity change, negative = inhibition: % is scaled to controls: 0 for no effect and ±100 for the full control effect); settings: PR-UAS-bla HEK293T, beta-lactamase FRET ratio, 16 h; activity change, negative = inhibition: at 92.4 µM (top of the series) unless noted
In short: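 Antagonist mode: compounds tested against 1 nM (final) promegestone stimulation in HEK293T cells expressing PR-UAS-bla reporter, 16 hr at 37C, 5% CO2; beta-lactamase activity detected via B/G FRET substrate after 2 hr at room temperature.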

[2] = qHTS assay to identify small molecule antagonists of the progesterone receptor (PR) signaling pathway - cell viability counter screen (AID 1346798); also: potency is read from the fitted curve at half-maximal effect; nearly all actives have a fitted effect of over 50% in size
In short: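 Counter screen for cytotoxicity: viability of PR-UAS-bla HEK293T cells was measured with CellTiter-Glo luminescence following 16 hr compound exposure in the presence of R5020.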

[3] = qHTS assay to identify small molecule agonists of the progesterone receptor (PR) signaling pathway - cell viability counter screen (AID 1346799; calls by dose curve; also: potency is read from the fitted curve at half-maximal effect; nearly all actives have a fitted effect of over 45% in size)
In short: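 Cells (PR-UAS-bla HEK293T) are plated at 3,000/well in 2% charcoal-stripped FBS medium, rested 6 hr, dosed and incubated 16 hr at 37C. CellTiter-Glo is then added and luminescence measured after 30 min at room temperature.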

[4] = Caspase-3/7 induction in CHO-K1 cells by small molecules, qHTS cell viability counter screen (AID 1346979); settings: CellTiter-Fluor fluorescence, 17 h; activity change, negative = cytotoxicity: at 92.4 µM (top of the series); also: potency is read from the fitted curve at half-maximal effect; nearly all actives have a fitted effect of over 35% in size
In short: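 Cytotoxicity counter screen run in parallel with the caspase-3/7 assay: CHO-K1 cells, 16hr compound treatment at 37C, then CellTiter-Fluor for 1hr before fluorescence reading.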

[5] = biological target: Nuclear receptor subfamily 1 group I member 2 (Homo sapiens) (UniProt O75469); test: Human pregnane X receptor (PXR) small molecule agonists, qHTS assay (AID 1346982); also: potency is read from the fitted curve at half-maximal effect; nearly all actives have a fitted effect of over 35% in size
In short: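 HepG2 PXR-Luc reporter line, 5% charcoal-stripped FBS; 5 hr pre-incubation, compound (DMSO) 24 hr at 37 C/5% CO2; ONE-Glo 30 min RT; luminescence read-out.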

[6] = biological target: Cytochrome P450 2D6 (Homo sapiens) (UniProt P10635); test: Cytochrome P450 Family 2 Subfamily D Member 6 (CYP2D6) small molecule antagonists: luciferase reporter qHTS assay (AID 1671196); also: potency is read from the fitted curve at half-maximal effect; nearly all actives have a fitted effect of over 50% in size
In short: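 Luminogenic proluciferin substrate, CYP2D6 enzyme; 10 min RT preincubation with compound, NADPH regeneration system added, 1 h RT. Stop/detection reagent, 20 min RT, luminescence read (RLU). Signal proportional to CYP activity.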

[7] = qHTS assay to identify small molecule antagonists of the TGF-beta/Smad signaling pathway (AID 1346924; active = well fitted inhibition curve with a large enough effect in the signal ratio in the repeat runs, not every such curve was filed as active; inconclusive = weak or mixed curves; the % refers to the signal ratio); settings: SBE-bla HEK293T, TGF-beta/Smad reporter, beta-lactamase ratio; activity, negative = inhibition: at 76.8 µM (top of the series) unless noted
In short: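 Read-out was FRET-substrate fluorescence (405 nm excitation; 460 and 530 nm emission) after 2 h at room temperature. Before that, cells carrying a Smad-binding-element beta-lactamase reporter in HEK 293T had been stimulated 5 h at 37 C with TGF-beta1 (0.25 ng/mL addition solution) in the presence of test compound.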

[8] = Human pregnane X receptor (PXR) small molecule agonists, qHTS cell viability counter screen (AID 1346977); also: potency is read from the fitted curve at half-maximal effect; nearly all actives have a fitted effect of over 50% in size
In short: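 Cytotoxicity counter screen run in the same wells as the PXR luciferase assay, using PXR-Luc HepG2 cells in charcoal-stripped serum medium. Viability: CellTiter-Fluor fluorescence after 24hr compound treatment.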

[9] = biological target: Nuclear receptor subfamily 1 group I member 2 (Homo sapiens) (UniProt O75469); test: Human pregnane X receptor (PXR) activation by small molecules, qHTS assay (AID 1346985); also: potency is read from the fitted curve at half-maximal effect; nearly all actives have a fitted effect of over 40% in size
In short: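 DPX-2 cells (HepG2 co-transfected with a PXR response element and a CYP3A4-promoter luciferase construct) were seeded at 2,000 per well, rested 5 hr at 37C, then exposed to DMSO-dissolved compounds for 24 hr. Activation was read as luciferase luminescence.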

[10] = Caspase-3/7 induction in HepG2 cells by small molecules, qHTS cell viability counter screen (AID 1346981); also: potency is read from the fitted curve at half-maximal effect; nearly all actives have a fitted effect of over 30% in size
In short: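 Fluorescence read-out of live-cell protease activity (CellTiter-Fluor) after 1 hr with reagent. This was measured in the same wells as the caspase-3/7 luminescence, on HepG2 cells exposed to DMSO-dissolved compounds for 16 hr at 37 C.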

[11] = Caspase-3/7 induction in HepG2 cells by small molecules, qHTS assay (AID 1346978); also: potency is read from the fitted curve at half-maximal effect; nearly all actives have a fitted effect of over 15% in size
In short: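 Wild-type HepG2 cells, 2,000/well, settled 5 hr at 37 C and 5% CO2, then compound-treated for 17 hr; caspase-3/7 activity read by luminescent Caspase-Glo 3/7 after 30 min at room temperature.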

[12] = Caspase-3/7 induction in CHO-K1 cells by small molecules, qHTS assay (AID 1346980); also: potency is read from the fitted curve at half-maximal effect; nearly all actives have a fitted effect of over 15% in size
In short: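 Wild-type CHO-K1 cells exposed to compounds for 17hr at 37 C, 5% CO2. Caspase-3/7 activity then measured by Caspase-Glo 3/7 luminescence after 30min at room temperature.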

[13] = biological target: Cytochrome P450 2C9 (Homo sapiens) (UniProt P11712); test: Cytochrome P450 Family 2 Subfamily C Member 9 (CYP2C9) small molecule antagonists: luciferase reporter qHTS assay (AID 1671198); also: nearly all actives have a fitted effect of over 50% in size; also: potency is read from the fitted curve at half-maximal effect; as to activity change, negative = inhibition: % is scaled to controls: 0 for no effect and ±100 for the full control effect
In short: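 P450-Glo proluciferin substrate with CYP2C9 enzyme; 10 min RT preincubation, then NADPH regeneration 1 h at 37C; luciferin detection reagent 20 min RT, luminescence in relative luminescence units.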
Tags tell the direction and shape of the fitted curve.

Sequence of UniProt P10635 (P10635 whole entry, looked up): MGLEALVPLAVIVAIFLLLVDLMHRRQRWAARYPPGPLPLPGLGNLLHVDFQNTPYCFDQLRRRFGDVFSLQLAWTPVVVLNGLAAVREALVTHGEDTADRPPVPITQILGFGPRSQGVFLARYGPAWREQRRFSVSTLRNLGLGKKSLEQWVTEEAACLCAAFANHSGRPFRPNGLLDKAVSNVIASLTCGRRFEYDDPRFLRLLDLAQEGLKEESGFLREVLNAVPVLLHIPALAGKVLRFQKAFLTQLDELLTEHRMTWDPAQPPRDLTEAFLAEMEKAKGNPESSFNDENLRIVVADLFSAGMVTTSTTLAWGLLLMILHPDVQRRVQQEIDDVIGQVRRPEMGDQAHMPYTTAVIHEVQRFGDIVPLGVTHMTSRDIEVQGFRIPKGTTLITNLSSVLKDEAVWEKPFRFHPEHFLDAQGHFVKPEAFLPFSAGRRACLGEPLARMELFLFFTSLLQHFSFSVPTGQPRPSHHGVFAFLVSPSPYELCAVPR
Sequence of UniProt P06401 (P06401 whole entry, looked up): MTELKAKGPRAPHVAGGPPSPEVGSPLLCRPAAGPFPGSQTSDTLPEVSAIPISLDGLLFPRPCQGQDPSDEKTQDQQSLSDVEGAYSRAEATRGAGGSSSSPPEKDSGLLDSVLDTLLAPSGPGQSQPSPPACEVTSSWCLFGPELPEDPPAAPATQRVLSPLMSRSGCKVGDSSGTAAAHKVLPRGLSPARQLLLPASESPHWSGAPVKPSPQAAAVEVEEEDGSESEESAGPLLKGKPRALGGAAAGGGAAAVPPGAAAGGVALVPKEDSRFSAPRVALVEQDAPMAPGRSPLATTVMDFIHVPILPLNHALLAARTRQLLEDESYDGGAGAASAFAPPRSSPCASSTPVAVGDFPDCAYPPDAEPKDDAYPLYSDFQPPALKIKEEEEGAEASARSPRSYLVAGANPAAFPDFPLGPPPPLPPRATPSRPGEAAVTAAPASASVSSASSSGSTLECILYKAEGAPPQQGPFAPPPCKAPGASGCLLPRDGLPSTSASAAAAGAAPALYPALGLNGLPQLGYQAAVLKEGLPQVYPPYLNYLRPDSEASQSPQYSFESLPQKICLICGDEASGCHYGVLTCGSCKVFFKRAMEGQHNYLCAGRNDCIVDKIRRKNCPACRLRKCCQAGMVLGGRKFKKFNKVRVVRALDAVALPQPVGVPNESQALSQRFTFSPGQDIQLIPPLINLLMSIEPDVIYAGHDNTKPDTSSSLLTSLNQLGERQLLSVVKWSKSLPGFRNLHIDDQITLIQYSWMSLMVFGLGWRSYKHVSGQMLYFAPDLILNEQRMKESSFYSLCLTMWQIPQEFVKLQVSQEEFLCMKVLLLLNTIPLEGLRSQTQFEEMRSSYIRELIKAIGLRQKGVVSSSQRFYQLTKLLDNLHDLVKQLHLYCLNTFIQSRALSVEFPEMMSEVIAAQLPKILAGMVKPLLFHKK
Sequence of UniProt P11712 (P11712 whole entry, looked up): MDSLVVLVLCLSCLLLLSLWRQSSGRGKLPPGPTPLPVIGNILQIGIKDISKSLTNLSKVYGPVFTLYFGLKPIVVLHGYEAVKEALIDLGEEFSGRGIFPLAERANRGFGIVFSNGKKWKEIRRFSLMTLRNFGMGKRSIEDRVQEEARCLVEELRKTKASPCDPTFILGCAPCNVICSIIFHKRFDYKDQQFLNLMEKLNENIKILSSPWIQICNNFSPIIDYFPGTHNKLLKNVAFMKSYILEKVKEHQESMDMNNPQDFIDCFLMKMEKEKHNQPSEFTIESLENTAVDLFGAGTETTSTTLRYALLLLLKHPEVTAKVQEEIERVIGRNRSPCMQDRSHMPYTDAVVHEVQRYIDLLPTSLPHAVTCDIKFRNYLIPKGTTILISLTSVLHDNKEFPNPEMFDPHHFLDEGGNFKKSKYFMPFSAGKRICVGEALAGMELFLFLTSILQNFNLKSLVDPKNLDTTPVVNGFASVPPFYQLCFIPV

Nc1cc(Cl)c(N)c(Cl)c1
inconclusive: Potency [1] 68 µM [falling, single point] | Potency [2] 68 µM [rising, single point] | Potency [3] 68 µM [rising, single point] | Potency [4] 68 µM [cytotoxic, partial curve] | Potency [6] 63.3 µM [inhibitor, partial curve]
active: Potency [5] 68 µM and 54.5 µM

C#C[C@]1(OC(C)=O)CC[C@H]2[C@@H]3CCC4=C[C@@H](OC(C)=O)CC[C@@H]4[C@H]3CC[C@@]21C
inconclusive: Potency [1] 33.5 µM [falling, single point] | Potency [2] 33.5 µM [cytotoxic, single point] | Potency [3] 3.76 µM [rising, partial curve, poor fit] | activity, negative = inhibition [7] -28.4% [at 35.3 µM] | Potency [8] 33.5 µM [cytotoxic, single point] | Potency [9] 14.1 µM [activator, partial curve, poor fit]

CC(C)=CCC1=C(O)c2ccccc2C(=O)C1=O
active: Potency [8] 60.8 µM | Potency [10] 60.8 µM | Potency [5] 19.2 µM
inconclusive: activity change, negative = inhibition [1] -44.1% | Potency [2] 1.92 µM [cytotoxic, full curve] | Potency [3] 1.36 µM [cytotoxic, full curve]

CC[C@@H]([C@H](C)O)n1ncn(-c2ccc(N3CCN(c4ccc(OC[C@@H]5CO[C@@](Cn6cncn6)(c6ccc(F)cc6F)C5)cc4)CC3)cc2)c1=O
inconclusive: Potency [1] 29.8 µM [rising, partial curve, poor fit] | Potency [8] 15 µM [cytotoxic, partial curve] | Potency [11] 33.5 µM [activator, partial curve, poor fit] | Potency [10] 29.8 µM [cytotoxic] | Potency [6] 8.71 µM [inhibitor, full curve]
active: Potency [2] 16.8 µM | Potency [3] 16.8 µM

O=S(=O)(O)c1ccc(N=Nc2c(O)ccc3ccccc23)cc1
inconclusive: Potency [1] 54.5 µM | Potency [5] 30.6 µM [activator, partial curve]
active: Potency [2] 8.63 µM | Potency [3] 7.7 µM | Potency [8] 27.3 µM | Potency [10] 30.6 µM | Potency [6] 35.6 µM

COc1cc2ncnc(Nc3ccc(F)c(Cl)c3)c2cc1OCCCN1CCOCC1
inactive: Potency [13]
inconclusive: Potency [2] 13.3 µM [cytotoxic, partial curve] | Potency [3] 1.68 µM [cytotoxic, full curve] | activity, negative = inhibition [7] -6.27% [at 35.3 µM] | Potency [11] 33.5 µM [activator, single point] | Potency [12] 33.5 µM [activator] | Potency [10] 23.7 µM [cytotoxic, partial curve] | Potency [9] 28.2 µM [activator, partial curve, poor fit]
active: Potency [1] 21.1 µM | Potency [4] 29.8 µM

CC(=O)OC[C@H]1O[C@@H](n2ncc(=O)[nH]c2=O)[C@H](OC(C)=O)[C@@H]1OC(C)=O
inconclusive: Potency [1] 0.596 µM [rising, full curve] | Potency [3] 2.11 µM [cytotoxic, full curve] | Potency [4] 33.5 µM [cytotoxic, single point]
active: Potency [2] 2.37 µM

CO[C@@H]1[C@@H](OC)[C@H](C)[C@@](O)(CC(=O)O)O[C@H]1[C@H](C)[C@H]1O[C@@]2(CC[C@@](C)([C@H]3CC[C@@](C)([C@@H]4O[C@@H]([C@H]5O[C@](C)(O)[C@H](C)C[C@@H]5C)C[C@@H]4OC4C[C@H](OC)[C@@H](OC)[C@H](C)O4)O3)O2)C[C@H](O)[C@H]1C (some centres undefined)
inconclusive: Potency [3] 0.335 µM [rising, partial curve] | activity, negative = inhibition [7] -21.3% [at 35.3 µM] | Potency [5] 1.33 µM [activator, partial curve]
active: Potency [1] 10.6 µM | Potency [2] 18.8 µM | Potency [8] 3.35 µM

Nc1ccc2c(O)cc(S(=O)(=O)O)cc2c1
active: Potency [3] 9.69 µM | Potency [8] 28.2 µM and 21.7 µM | Potency [6] 35.6 µM and 71 µM
inconclusive: activity change, negative = inhibition [1] -35.6% and -43.8% | Potency [2] 15.4 µM [cytotoxic, full curve] and 9.69 µM [cytotoxic, full curve] | Potency [5] 24.3 µM [activator, partial curve] | Potency [13] 79.8 µM [inhibitor]
